Drawing on article PMC3897701, this text covers binding for four molecules.

The chains behind the UniProt entries cited, without tags or fusion partners. Residues count along the entry.
UniProt P41274, residues 104-309: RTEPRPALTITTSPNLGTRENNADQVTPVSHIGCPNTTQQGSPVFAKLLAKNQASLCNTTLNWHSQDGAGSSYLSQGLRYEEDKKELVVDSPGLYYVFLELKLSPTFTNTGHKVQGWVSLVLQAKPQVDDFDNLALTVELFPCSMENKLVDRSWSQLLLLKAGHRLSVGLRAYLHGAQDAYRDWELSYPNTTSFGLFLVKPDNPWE
UniProt P41273, residues 50-254: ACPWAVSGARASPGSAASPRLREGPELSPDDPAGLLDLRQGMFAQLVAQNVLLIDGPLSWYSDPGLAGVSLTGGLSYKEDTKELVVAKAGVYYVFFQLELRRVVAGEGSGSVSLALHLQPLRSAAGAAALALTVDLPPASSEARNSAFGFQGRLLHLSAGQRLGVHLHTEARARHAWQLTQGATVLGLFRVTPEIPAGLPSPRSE

First the molecules themselves.
B1: mouse CD137 extracellular domain with hFc tail (mE-hFc) (Fc fusion, UniProt P20334 24-185)
chain: VQNSCDNCQPGTFCRKYNPVCKSCPPSTFSSIGGQPNCNICRVCAGYFRFKKFCSSTHNAECECIEGFHCLGPQCTRCEKDCRPGQELTKQGCKTCSLGTFNDQNGTGVCRPWTNCSLDGRSVLKTGTTEKDVVCGPPVVSFSPSTTISVTPEGGPGGHSLQ
B2: mE4 (mouse CD137 CRDI+II+III, human IgG-Fc fusion protein) (Fc fusion, UniProt P20334 24-117)
chain: VQNSCDNCQPGTFCRKYNPVCKSCPPSTFSSIGGQPNCNICRVCAGYFRFKKFCSSTHNAECECIEGFHCLGPQCTRCEKDCRPGQELTKQGCK
B3: mE3 (mouse CD137 CRDI+II, human IgG-Fc fusion protein) (Fc fusion, UniProt P20334 24-85)
chain: VQNSCDNCQPGTFCRKYNPVCKSCPPSTFSSIGGQPNCNICRVCAGYFRFKKFCSSTHNAEC

These are yes or no findings as the source states them, for the method shown. Some results given as binding are weak or reduced against the parent protein; the word gives no strength. For part of these data: Sequences can lack the tags named with a protein.

The target in the first test is mCD137L-mFc (mouse CD137L extracellular domain with mouse IgG-Fc fusion protein) (mouse) (UniProt P41274). Put plainly: ELISA; blocking: mCD137-hFc (1 µg/ml) mixed with rat anti-mouse CD137 mAbs (5 or 25 µg/ml), added to mCD137L-mFc coated plates (1 µg/ml); mouse anti-human-Fc-HRP; both purified. (In general: ELISA stands for enzyme-linked immunosorbent assay.)
Turning to B1, the binding result is given as “binds”.

A further test has the same target. The experiment in a line: ELISA; purified mCD137L-mFc coated at 1 µg/ml; purified mE, mE2, mE3, mE4 added at 0.1 to 10 µg/ml; goat anti-human IgG-HRP; both purified.
In the case of B1, the binding result is recorded as “binds”.
Same read-out and setting: in the case of B2 it was “binds”; in that of VQNSCDNCQPGTFCRKYNPVCK (Fc fusion, UniProt P20334 24-45) [mE2 (mouse CD137 CRDI, human IgG-Fc fusion protein)], “no binding (tested: 10 µg/ml)”.
The same measure, in the same setting: the same measure for B3: “binds”.

For the next test the target is unchanged. Put plainly: ELISA; purified mCD137L-mFc coated at 1 µg/ml, blocked with 5% milk; expression supernatants of CD137-hFc fragments added 2 h at 37°C; goat anti-human IgG-HRP; positive if P/N>2.1; only the target purified.
Turning to B1, the binding result was “binds”.
The same measure, in the same setting: in the case of B2 it was “binds”; in that of VQNSCDNCQPGTFCRKYNPVCK (Fc fusion, UniProt P20334 24-45) [mE2 (mouse CD137 CRDI, human IgG-Fc fusion protein)], “no binding”; in that of B3, “binds”.

The next test concerns the target hCD137L-mFc (human CD137L extracellular domain and mouse IgG-Fc fusion protein) (human) (UniProt P41273). The experiment in a line: ELISA; purified hCD137L-mFc coated at 1 µg/ml; expression supernatants of human or mouse CD137-hFc fragments added; goat anti-human IgG-HRP; positive if P/N>2.1; only the target purified.
B1: the binding result is on record as “binds”.
The same measure, in the same setting: the same measure for B2: “binds”; for B3: “binds”.
